Data reported in US20240358826A1 (ORIONIS BIOSCIENCES, published 2024).

T1: IL-1R (IL-1 Receptor) (UniProt P14778 18-569, limits assumed)
T1 sequence (looked up): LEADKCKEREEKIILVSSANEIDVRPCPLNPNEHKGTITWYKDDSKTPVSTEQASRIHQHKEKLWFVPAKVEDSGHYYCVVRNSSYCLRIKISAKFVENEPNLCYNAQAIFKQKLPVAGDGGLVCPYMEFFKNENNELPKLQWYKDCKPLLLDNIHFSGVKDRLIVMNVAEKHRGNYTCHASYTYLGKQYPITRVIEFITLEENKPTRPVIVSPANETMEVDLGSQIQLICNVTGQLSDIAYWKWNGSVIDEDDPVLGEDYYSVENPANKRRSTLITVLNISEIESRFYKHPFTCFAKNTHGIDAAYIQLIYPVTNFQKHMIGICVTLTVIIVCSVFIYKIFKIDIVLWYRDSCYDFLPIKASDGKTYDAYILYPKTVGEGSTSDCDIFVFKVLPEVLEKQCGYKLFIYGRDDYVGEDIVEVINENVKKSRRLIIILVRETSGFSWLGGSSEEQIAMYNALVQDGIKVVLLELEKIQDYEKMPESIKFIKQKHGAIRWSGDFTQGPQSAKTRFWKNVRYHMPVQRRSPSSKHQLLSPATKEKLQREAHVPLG


Molecular target: T1, IL-1R (IL-1 Receptor)
Assay: cell-based or functional assay

| Binder | NF-KB signal, -CD8 cells, 1 ng/ml | NF-KB signal, -CD8 cells, 10 ng/ml | NF-KB signal, -CD8 cells, 100 ng/ml | NF-KB signal, -CD8 cells, 1000 ng/ml |
| --- | --- | --- | --- | --- |
| CD8 VHH_5GGS_Fc_hole + Fc-knob_20GGS_IL1α delta 1-6_Q153A (Fc fusion) chain 1: DVQLQESGGGLVQPGGSLRLSCAASGSIFSINVMGWYRQTPGKERELVAKITNFGITSYADSAQGRFTISRGNAKNTVYLQMNSLKPEDTAVYYCNLDTTGWGPPPYQYWGQGTQVTVSSGGSGGSGGSGGSGGSDKTHTCPPCPAPEAAGGPSVFLFPPKPKDTLMISRTPEVTCVVVDVSHEDPEVKFNWYVDGVEVHNAKTKPREEQYNSTYRVVSVLTVLHQDWLNGKEYKCQVSNKALPAPIEKTISKAKGQPREPQVCTLPPSRDELTKNQVSLSCAVKGFYPSDIAVEWESNGQPENNYKTTPPVLDSDGSFFLVSKLTVDKSRWQQGNVFSCSVMHEALHNHYTQKSLSLSPGK chain 2: [letters of human IgG1 Fc with changes not shown]GGSGGSGGSGGSGGSGGSGGSGGSGGSGGSGGSGGSGGSGGSGGSGGSGGSGGSGGSGGSLSNVKYNFMRIIKYEFILNDALNQSIIRANDQYLTAAALHNLDEAVKFDMGAYKSSKDDAKITVILRISKTQLYVTAQDEDQPVLLKEMPEIPKTITGSETNLLFFWETHGTKNYFTSVAHPNLFIATKQDYWVCLAGGPPSITDFAILENQA | 0.01 rel. to 100 ng/ml IL1α | 0.02 rel. to 100 ng/ml IL1α | 0.18 rel. to 100 ng/ml IL1α | 0.61 rel. to 100 ng/ml IL1α |
| CD8 VHH_5GGS_Fc_hole + Fc-knob_20GGS_IL1α delta 1-6_D65A (Fc fusion) chain 1: DVQLQESGGGLVQPGGSLRLSCAASGSIFSINVMGWYRQTPGKERELVAKITNFGITSYADSAQGRFTISRGNAKNTVYLQMNSLKPEDTAVYYCNLDTTGWGPPPYQYWGQGTQVTVSSGGSGGSGGSGGSGGSDKTHTCPPCPAPEAAGGPSVFLFPPKPKDTLMISRTPEVTCVVVDVSHEDPEVKFNWYVDGVEVHNAKTKPREEQYNSTYRVVSVLTVLHQDWLNGKEYKCQVSNKALPAPIEKTISKAKGQPREPQVCTLPPSRDELTKNQVSLSCAVKGFYPSDIAVEWESNGQPENNYKTTPPVLDSDGSFFLVSKLTVDKSRWQQGNVFSCSVMHEALHNHYTQKSLSLSPGK chain 2: [letters of human IgG1 Fc with changes not shown]GGSGGSGGSGGSGGSGGSGGSGGSGGSGGSGGSGGSGGSGGSGGSGGSGGSGGSGGSGGSLSNVKYNFMRIIKYEFILNDALNQSIIRANDQYLTAAALHNLDEAVKFDMGAYKSSKDAAKITVILRISKTQLYVTAQDEDQPVLLKEMPEIPKTITGSETNLLFFWETHGTKNYFTSVAHPNLFIATKQDYWVCLAGGPPSITDFQILENQA | 0.02 rel. to 100 ng/ml IL1α | 0.03 rel. to 100 ng/ml IL1α | 0.25 rel. to 100 ng/ml IL1α | 0.83 rel. to 100 ng/ml IL1α |
| CD8 VHH_5GGS_Fc_hole + Fc-knob_20GGS_IL1α delta 1-6_M15A (Fc fusion) chain 1: DVQLQESGGGLVQPGGSLRLSCAASGSIFSINVMGWYRQTPGKERELVAKITNFGITSYADSAQGRFTISRGNAKNTVYLQMNSLKPEDTAVYYCNLDTTGWGPPPYQYWGQGTQVTVSSGGSGGSGGSGGSGGSDKTHTCPPCPAPEAAGGPSVFLFPPKPKDTLMISRTPEVTCVVVDVSHEDPEVKFNWYVDGVEVHNAKTKPREEQYNSTYRVVSVLTVLHQDWLNGKEYKCQVSNKALPAPIEKTISKAKGQPREPQVCTLPPSRDELTKNQVSLSCAVKGFYPSDIAVEWESNGQPENNYKTTPPVLDSDGSFFLVSKLTVDKSRWQQGNVFSCSVMHEALHNHYTQKSLSLSPGK chain 2: [letters of human IgG1 Fc with changes not shown]GGSGGSGGSGGSGGSGGSGGSGGSGGSGGSGGSGGSGGSGGSGGSGGSGGSGGSGGSGGSLSNVKYNFARIIKYEFILNDALNQSIIRANDQYLTAAALHNLDEAVKFDMGAYKSSKDDAKITVILRISKTQLYVTAQDEDQPVLLKEMPEIPKTITGSETNLLFFWETHGTKNYFTSVAHPNLFIATKQDYWVCLAGGPPSITDFQILENQA | 0.01 rel. to 100 ng/ml IL1α | 0.02 rel. to 100 ng/ml IL1α | 0.08 rel. to 100 ng/ml IL1α | 0.6 rel. to 100 ng/ml IL1α |

Other lines, results leading:

| NF-KB signal, -CD8 cells, 1 ng/ml | NF-KB signal, -CD8 cells, 10 ng/ml | NF-KB signal, -CD8 cells, 100 ng/ml | NF-KB signal, -CD8 cells, 1000 ng/ml | Binder |
| --- | --- | --- | --- | --- |
| 0.02 rel. to 100 ng/ml IL1α | 0.04 rel. to 100 ng/ml IL1α | 0.4 rel. to 100 ng/ml IL1α | – | CD8 VHH_5GGS_Fc_hole + Fc-knob_20GGS_IL1α delta 1-6_K100A (Fc fusion) chain 1: DVQLQESGGGLVQPGGSLRLSCAASGSIFSINVMGWYRQTPGKERELVAKITNFGITSYADSAQGRFTISRGNAKNTVYLQMNSLKPEDTAVYYCNLDTTGWGPPPYQYWGQGTQVTVSSGGSGGSGGSGGSGGSDKTHTCPPCPAPEAAGGPSVFLFPPKPKDTLMISRTPEVTCVVVDVSHEDPEVKFNWYVDGVEVHNAKTKPREEQYNSTYRVVSVLTVLHQDWLNGKEYKCQVSNKALPAPIEKTISKAKGQPREPQVCTLPPSRDELTKNQVSLSCAVKGFYPSDIAVEWESNGQPENNYKTTPPVLDSDGSFFLVSKLTVDKSRWQQGNVFSCSVMHEALHNHYTQKSLSLSPGK chain 2: [letters of human IgG1 Fc with changes not shown]GGSGGSGGSGGSGGSGGSGGSGGSGGSGGSGGSGGSGGSGGSGGSGGSGGSGGSGGSGGSLSNVKYNFMRIIKYEFILNDALNQSIIRANDQYLTAAALHNLDEAVKFDMGAYKSSKDDAKITVILRISKTQLYVTAQDEDQPVLLKEMPEIPATITGSETNLLFFWETHGTKNYFTSVAHPNLFIATKQDYWVCLAGGPPSITDFQILENQA |
| 0.01 rel. to 100 ng/ml IL1α | 0.02 rel. to 100 ng/ml IL1α | 0.11 rel. to 100 ng/ml IL1α | – | CD8 VHH_5GGS_Fc_hole + Fc-knob_20GGS_IL1α delta 1-6_W113F (Fc fusion) chain 1: DVQLQESGGGLVQPGGSLRLSCAASGSIFSINVMGWYRQTPGKERELVAKITNFGITSYADSAQGRFTISRGNAKNTVYLQMNSLKPEDTAVYYCNLDTTGWGPPPYQYWGQGTQVTVSSGGSGGSGGSGGSGGSDKTHTCPPCPAPEAAGGPSVFLFPPKPKDTLMISRTPEVTCVVVDVSHEDPEVKFNWYVDGVEVHNAKTKPREEQYNSTYRVVSVLTVLHQDWLNGKEYKCQVSNKALPAPIEKTISKAKGQPREPQVCTLPPSRDELTKNQVSLSCAVKGFYPSDIAVEWESNGQPENNYKTTPPVLDSDGSFFLVSKLTVDKSRWQQGNVFSCSVMHEALHNHYTQKSLSLSPGK chain 2: [letters of human IgG1 Fc with changes not shown]GGSGGSGGSGGSGGSGGSGGSGGSGGSGGSGGSGGSGGSGGSGGSGGSGGSGGSGGSGGSLSNVKYNFMRIIKYEFILNDALNQSIIRANDQYLTAAALHNLDEAVKFDMGAYKSSKDDAKITVILRISKTQLYVTAQDEDQPVLLKEMPEIPKTITGSETNLLFFFETHGTKNYFTSVAHPNLFIATKQDYWVCLAGGPPSITDFQILENQA |
| 0.02 rel. to 100 ng/ml IL1α | 0.02 rel. to 100 ng/ml IL1α | 0.11 rel. to 100 ng/ml IL1α | 0.7 rel. to 100 ng/ml IL1α | CD8 VHH_5GGS_Fc_hole + Fc-knob_20GGS_IL1α delta 1-6_C141H (Fc fusion) chain 1: DVQLQESGGGLVQPGGSLRLSCAASGSIFSINVMGWYRQTPGKERELVAKITNFGITSYADSAQGRFTISRGNAKNTVYLQMNSLKPEDTAVYYCNLDTTGWGPPPYQYWGQGTQVTVSSGGSGGSGGSGGSGGSDKTHTCPPCPAPEAAGGPSVFLFPPKPKDTLMISRTPEVTCVVVDVSHEDPEVKFNWYVDGVEVHNAKTKPREEQYNSTYRVVSVLTVLHQDWLNGKEYKCQVSNKALPAPIEKTISKAKGQPREPQVCTLPPSRDELTKNQVSLSCAVKGFYPSDIAVEWESNGQPENNYKTTPPVLDSDGSFFLVSKLTVDKSRWQQGNVFSCSVMHEALHNHYTQKSLSLSPGK chain 2: [letters of human IgG1 Fc with changes not shown]GGSGGSGGSGGSGGSGGSGGSGGSGGSGGSGGSGGSGGSGGSGGSGGSGGSGGSGGSGGSLSNVKYNFMRIIKYEFILNDALNQSIIRANDQYLTAAALHNLDEAVKFDMGAYKSSKDDAKITVILRISKTQLYVTAQDEDQPVLLKEMPEIPKTITGSETNLLFFWETHGTKNYFTSVAHPNLFIATKQDYWVHLAGGPPSITDFQILENQA |
| 0.01 rel. to 100 ng/ml IL1α | 0.01 rel. to 100 ng/ml IL1α | 0.13 rel. to 100 ng/ml IL1α | 0.86 rel. to 100 ng/ml IL1α | CD8 VHH_5GGS_Fc_hole + Fc-knob_20GGS_IL1α delta 1-6_Q153G (Fc fusion) chain 1: DVQLQESGGGLVQPGGSLRLSCAASGSIFSINVMGWYRQTPGKERELVAKITNFGITSYADSAQGRFTISRGNAKNTVYLQMNSLKPEDTAVYYCNLDTTGWGPPPYQYWGQGTQVTVSSGGSGGSGGSGGSGGSDKTHTCPPCPAPEAAGGPSVFLFPPKPKDTLMISRTPEVTCVVVDVSHEDPEVKFNWYVDGVEVHNAKTKPREEQYNSTYRVVSVLTVLHQDWLNGKEYKCQVSNKALPAPIEKTISKAKGQPREPQVCTLPPSRDELTKNQVSLSCAVKGFYPSDIAVEWESNGQPENNYKTTPPVLDSDGSFFLVSKLTVDKSRWQQGNVFSCSVMHEALHNHYTQKSLSLSPGK chain 2: [letters of human IgG1 Fc with changes not shown]GGSGGSGGSGGSGGSGGSGGSGGSGGSGGSGGSGGSGGSGGSGGSGGSGGSGGSGGSGGSLSNVKYNFMRIIKYEFILNDALNQSIIRANDQYLTAAALHNLDEAVKFDMGAYKSSKDDAKITVILRISKTQLYVTAQDEDQPVLLKEMPEIPKTITGSETNLLFFWETHGTKNYFTSVAHPNLFIATKQDYWVCLAGGPPSITDFGILENQA |
| 0.01 rel. to 100 ng/ml IL1α | 0.02 rel. to 100 ng/ml IL1α | 0.3 rel. to 100 ng/ml IL1α | 0.85 rel. to 100 ng/ml IL1α | CD8 VHH_5GGS_Fc_hole + Fc-knob_20GGS_IL1α delta 1-6_D64G (Fc fusion) chain 1: DVQLQESGGGLVQPGGSLRLSCAASGSIFSINVMGWYRQTPGKERELVAKITNFGITSYADSAQGRFTISRGNAKNTVYLQMNSLKPEDTAVYYCNLDTTGWGPPPYQYWGQGTQVTVSSGGSGGSGGSGGSGGSDKTHTCPPCPAPEAAGGPSVFLFPPKPKDTLMISRTPEVTCVVVDVSHEDPEVKFNWYVDGVEVHNAKTKPREEQYNSTYRVVSVLTVLHQDWLNGKEYKCQVSNKALPAPIEKTISKAKGQPREPQVCTLPPSRDELTKNQVSLSCAVKGFYPSDIAVEWESNGQPENNYKTTPPVLDSDGSFFLVSKLTVDKSRWQQGNVFSCSVMHEALHNHYTQKSLSLSPGK chain 2: [letters of human IgG1 Fc with changes not shown]GGSGGSGGSGGSGGSGGSGGSGGSGGSGGSGGSGGSGGSGGSGGSGGSGGSGGSGGSGGSLSNVKYNFMRIIKYEFILNDALNQSIIRANDQYLTAAALHNLDEAVKFDMGAYKSSKGDAKITVILRISKTQLYVTAQDEDQPVLLKEMPEIPKTITGSETNLLFFWETHGTKNYFTSVAHPNLFIATKQDYWVCLAGGPPSITDFQILENQA |
